Among all 310,000 compounds or so, about 2,200 (0.71%) showed an effect of 50% or more. Effects have a minus sign here. The list shows a part of the results.
Target: human ether-à-go-go-related gene (hERG) potassium channel (human, UniProt Q12809)
Assay: primary screen, population patch clamp on CHO cells stably expressing hERG

human ether-à-go-go-related gene (hERG) potassium channel, sequence (Q12809 whole entry, looked up): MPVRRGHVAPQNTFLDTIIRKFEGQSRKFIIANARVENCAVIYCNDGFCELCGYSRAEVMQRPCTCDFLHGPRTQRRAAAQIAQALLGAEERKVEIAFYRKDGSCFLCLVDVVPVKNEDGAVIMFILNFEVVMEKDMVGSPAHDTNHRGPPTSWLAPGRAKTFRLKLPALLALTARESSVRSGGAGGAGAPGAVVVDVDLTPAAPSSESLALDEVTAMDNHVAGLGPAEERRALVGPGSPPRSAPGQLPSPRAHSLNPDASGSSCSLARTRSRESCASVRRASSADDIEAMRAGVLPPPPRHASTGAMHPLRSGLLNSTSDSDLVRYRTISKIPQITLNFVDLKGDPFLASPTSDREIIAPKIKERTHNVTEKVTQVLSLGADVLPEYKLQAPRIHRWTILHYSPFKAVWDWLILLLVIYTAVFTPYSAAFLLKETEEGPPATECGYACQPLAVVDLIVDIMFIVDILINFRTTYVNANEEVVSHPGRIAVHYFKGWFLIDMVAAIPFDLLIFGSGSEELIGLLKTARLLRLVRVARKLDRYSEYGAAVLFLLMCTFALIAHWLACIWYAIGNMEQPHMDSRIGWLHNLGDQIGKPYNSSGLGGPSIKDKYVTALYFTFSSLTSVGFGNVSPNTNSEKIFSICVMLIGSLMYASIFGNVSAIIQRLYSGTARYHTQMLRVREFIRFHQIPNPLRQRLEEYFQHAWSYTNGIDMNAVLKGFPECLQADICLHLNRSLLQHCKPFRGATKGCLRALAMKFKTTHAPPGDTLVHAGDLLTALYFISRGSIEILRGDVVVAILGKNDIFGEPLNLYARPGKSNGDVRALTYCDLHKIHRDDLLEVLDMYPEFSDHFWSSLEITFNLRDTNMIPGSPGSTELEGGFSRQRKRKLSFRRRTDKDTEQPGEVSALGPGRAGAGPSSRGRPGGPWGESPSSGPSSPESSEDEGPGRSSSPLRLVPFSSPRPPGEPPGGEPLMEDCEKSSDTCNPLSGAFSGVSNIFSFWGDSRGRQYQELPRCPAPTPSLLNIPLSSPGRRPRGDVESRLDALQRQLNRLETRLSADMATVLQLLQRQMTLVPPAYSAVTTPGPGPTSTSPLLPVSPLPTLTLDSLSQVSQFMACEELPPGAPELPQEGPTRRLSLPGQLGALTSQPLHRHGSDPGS

Compound	hERG current change (%, negative = inhibition) at 1uM [%]
Cc1cc(C(=O)NCc2cccs2)cs1	13
CN(C)C(=O)c1ccccc1-c1ccccc1	12.8
O=C(NCCOc1ccccc1)C1CCC(=O)N(C2CCCCCC2)C1 (stereo not shown)	11.5
Cc1nn(Cc2ccccc2Cl)c(C)c1C(=O)NC1CCCc2ccccc21 (stereo not shown)	6.95
CCC1CCC(C(=O)NNC(=O)c2cc(-c3ccco3)[nH]n2)CC1 (stereo not shown)	4.43
O=C(NCC1COCCO1)C1CCN(S(=O)(=O)c2ccccc2)CC1 (stereo not shown)	5.66
CCC(=O)NCCc1nc2cc(NC(=O)c3ccc(Cl)cc3)ccc2n1C	14.6
CCCCn1c(N)c(N(Cc2ccccc2OC)C(=O)CSCC(=O)Nc2cccc(C)c2)c(=O)[nH]c1=O	9.61
CS(=O)(=O)C1=C(O)C(=O)N(c2ccccc2)C1c1ccccc1 (stereo not shown)	12.5
COc1cc2c(cc1OC)CN(Cc1ccc(C)cc1)CC2	-6.85
N#Cc1cccc(NC(=O)C2CCCN(C(=O)c3ccc(Cl)cc3)C2)c1 (stereo not shown)	4.5
COc1cc(NC(=O)c2cccs2)cc(OC)c1	-0.578
Cn1c(=O)n(C)c2cc(S(=O)(=O)Nc3cc(Cl)ccc3O)ccc21	12.6
CCn1c(SCC(=O)NC2CCCCC2)nnc1-c1cc2cccc(OC)c2o1	1.93
O=C(c1csc2c1CCCC2)N1CCN(c2cccc(C(F)(F)F)c2)CC1	13.6
CCC(=O)N1CCCc2cc(S(=O)(=O)N3CCN(c4ncccn4)CC3)ccc21	9.45
O=C(Cn1cc(C(F)(F)F)cc(Cl)c1=O)NCc1ccc(F)cc1	11
CCC1(c2ccc(F)cc2)NC(=O)N(CC(=O)N(C)C2CCS(=O)(=O)C2)C1=O (stereo not shown)	6.01
Cn1c(NC(=O)c2cccs2)cc(=O)n(C)c1=O	11.2
COc1ccc(NC(=O)c2cc(-c3ccc(C)o3)nc3ccccc23)c(OC)c1	12.8
CCc1[nH]nc(C(=O)N2CCCC(C(=O)c3cccc(OC(C)C)c3)C2)c1C (stereo not shown)	19.2
O=C(Nc1ccc(N2CCN(c3ncccc3C(F)(F)F)CC2)nc1)c1cccs1	11.4
Cc1oc2ccccc2c1CNC(=O)N(C)C	15.7
CCC1CCc2sc(C(=O)NCc3ccccn3)cc2C1 (stereo not shown)	10.8
COc1ccccc1C1/C(=C(/O)c2ccc(Cl)cc2)C(=O)C(=O)N1CCN1CCOCC1 (stereo not shown)	12.4
C[C@H](NC(=O)[C@@H]1Cc2ccccc2CN1)C(=O)NCC1CCC(C(=O)O)CC1.Cl (stereo partly shown)	5.5
COc1ccc(CCNC(=O)C2CCCN(Cc3nc(-c4ccccc4C)oc3C)C2)cc1OC (stereo not shown)	-2.12
COc1ccc(CN2CC(=O)N(c3ccc(Cl)cc3)C2=S)cc1OC	15.5

Compound	hERG current change (%, negative = inhibition) at 1uM [%]
COc1ccccc1CC(=O)Nc1cc2oc3ccccc3c2cc1OC	16.4
Cc1cccc(NC(=O)NCC(c2cccnc2)N2CCOCC2)c1 (stereo not shown)	9.82
COc1ccccc1N1CCN(C(=O)CCCn2nc(C)c([N+](=O)[O-])c2C)CC1	-10.4
CSC1=NCCN1C(=O)c1c(F)cccc1F	7.21
O=c1c2cnn(-c3ccccc3)c2nc(-c2cccs2)n1-c1ccc(Cl)cc1	12
Cc1ccc(S(=O)(=O)N2[C@@H](c3ccc(Cl)cc3)C(C(=O)O)=CC[C@H]2c2cccc(Cl)c2)cc1	12.8
COC(=O)Cn1ncc(N2C3CC(CC(C)(C)C3)C2C)c(Cl)c1=O (stereo not shown)	0.459
COc1ccc(CCNc2ccc(C(CC(N)=O)NC(=O)c3cc(C)cc(C)c3)cc2[N+](=O)[O-])cc1 (stereo not shown)	11
CC(C)C[C@H](NP(=O)([O-])O[C@@H]1O[C@@H](C)[C@H](O)[C@@H](O)[C@H]1O)C(=O)N[C@@H](Cc1c[nH]c2ccccc12)C(=O)[O-].[Na+]	5.52
COc1ccc(F)c(CN2CCCC(CNS(=O)(=O)c3cccc4cccnc34)C2)c1 (stereo not shown)	14
O=C(O)C1CCN(c2c([N+](=O)[O-])cc(C(F)(F)F)cc2[N+](=O)[O-])CC1	5.68
O=C(O)C1CC=CCC1C(=O)NNc1c(Cl)cc(Cl)cc1Cl (stereo not shown)	9.44
CC(=O)NC1=C(NC2CCS(=O)(=O)C2)C(=O)c2ccccc2C1=O (stereo not shown)	20.6
COC(=O)c1cccc(Oc2cccc(C(F)(F)F)c2)n1	6.73
CCCCc1nc2ccccc2c(NC(=O)CN2CCN(C)CC2)c1CCC.O=C(O)C(=O)O	-2.05
COc1ccc(/C=C2\N=C(C)OC2=O)cc1OC(C)=O	6.81
NC(=O)NCCCC(=O)O	9.76
CC1CCN(CCc2nc3ccccc3[nH]2)CC1	-33.4
COc1ccc(NC(=O)CC2C(=O)NCCN2C(=O)Nc2ccc(C(F)(F)F)cc2)cc1 (stereo not shown)	15.4
COc1cc(C(=O)NNC(=O)C2CCCC2)cc(OC)c1OC	14.1
CC(C)N(C(=S)NCc1ccccc1)c1ccccc1	7.04
CCOC(=O)C1CCN(C(c2cc3c(C)ccc(C)c3[nH]c2=O)c2nnnn2C2CCCCC2)CC1 (stereo not shown)	-0.367
Cc1cc(-c2onc(C)c2C(=O)N/N=C/c2ccccc2)no1	11.4
COc1cc(/C=N/NC(=O)c2cccc3ccccc23)ccc1OCC(N)=O	6.89
Cc1cc(C)n(C(=O)c2ccc(S(=O)(=O)N3CCCC3)cc2)n1	12.5
O=C(O)COCC(=O)N1CCN(c2cc(C(F)(F)F)nc3ccccc23)CC1	18
COc1ccc(NCc2nc3ccccc3n2CCOc2ccccc2)cc1	-4.64

Reference: article PMC4336329 (PLoS ONE, 2015)
